The list shows a part of the results. The list includes weakly bound sequences.

These results are taken from publication PMC12820563.

In this test the target is T1, MBP-FoxP3dN (UniProt Q99JB6).
T1 sequence: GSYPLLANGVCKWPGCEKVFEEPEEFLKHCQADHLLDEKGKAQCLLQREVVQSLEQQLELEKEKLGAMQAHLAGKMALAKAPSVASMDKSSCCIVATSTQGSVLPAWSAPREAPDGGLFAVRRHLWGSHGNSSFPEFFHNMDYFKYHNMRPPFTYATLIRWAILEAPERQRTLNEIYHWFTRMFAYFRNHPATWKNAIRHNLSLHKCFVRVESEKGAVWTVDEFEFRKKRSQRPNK
The test can be described thus: PD-seq (MBP pull-down with sequencing). The settings on record: 20 mM Tris-HCl pH 7.5, 100 mM NaCl, 1.5 mM MgCl2, 0.4 uM protein, 0.1 uM dsDNA library, 30 min, room temperature, amylose pull-down; high values mean tight binding; double strand, one strand shown.
As to “GATGATTGTTCTCCCAGCTGATGAATTTCCGGCCTCGAGTAAACAAATTTTCCTAATCTTTCTGTTCAAGCGCCATCTAC”, the binding signal (RPM ratio (pull-down/input)) was determined as 0.336.

On to “GATGATTGTTCTCCCAGCTGATGAATTCAACGCTTCGAGTAAACAAATTTTCCTAATCTTTCTGTTCAAGCGCCATCTAC”, for which the binding signal (RPM ratio (pull-down/input)) was 0.458.

In the case of “GATGATTGTTCTCCCAGCTGATGAATTACTCGAGTCGAGTAAACAAATTTTCCTAATCTTTCTGTTCAAGCGCCATCTAC”, the binding signal (RPM ratio (pull-down/input)) was found to be 0.248.

Regarding “GATGATTGTTCTCCCAGCTGATGAATTCCTAGGATCGAGTAAACAAATTTTCCTAATCTTTCTGTTCAAGCGCCATCTAC”, the binding signal (RPM ratio (pull-down/input)) is 0.204.

Turning to “GATGATTGTTCTCCCAGCTGATGAATTACGGTGGTCGAGTAAACAAATTTTCCTAATCTTTCTGTTCAAGCGCCATCTAC”, the binding signal (RPM ratio (pull-down/input)) was determined as 0.504.

With “GATGATTGTTCTCCCAGCTGATGAATTACACGTGTCGAGTAAACAAATTTTCCTAATCTTTCTGTTCAAGCGCCATCTAC”, the binding signal (RPM ratio (pull-down/input)) worked out at 0.73.

For “GATGATTGTTCTCCCAGCTGATGAATTCTCAGTTTCGAGTAAACAAATTTTCCTAATCTTTCTGTTCAAGCGCCATCTAC”, the binding signal (RPM ratio (pull-down/input)) worked out at 0.32.

With “GATGATTGTTCTCCCAGCTGATGAATTCGAGCGTTCGAGTAAACAAATTTTCCTAATCTTTCTGTTCAAGCGCCATCTAC”, the binding signal (RPM ratio (pull-down/input)) worked out at 1.05.

Consider “GATGATTGTTCTCCCAGCTGATGAATTTTGTTCGTCGAGTAAACAAATTTTCCTAATCTTTCTGTTCAAGCGCCATCTAC”, for which the binding signal (RPM ratio (pull-down/input)) turned out to be 1.45.

In the case of “GATGATTGTTCTCCCAGCTGATGAATTGACAACTTCGAGTAAACAAATTTTCCTAATCTTTCTGTTCAAGCGCCATCTAC”, the binding signal (RPM ratio (pull-down/input)) came out at 0.645.

Turning to “GATGATTGTTCTCCCAGCTGATGAATTAGTTCGCTCGAGTAAACAAATTTTCCTAATCTTTCTGTTCAAGCGCCATCTAC”, the binding signal (RPM ratio (pull-down/input)) amounted to 0.39.

In the case of “GATGATTGTTCTCCCAGCTGATGAATTTCTTCTTTCGAGTAAACAAATTTTCCTAATCTTTCTGTTCAAGCGCCATCTAC”, the binding signal (RPM ratio (pull-down/input)) was determined as 0.221.

As to “GATGATTGTTCTCCCAGCTGATGAATTCATTCATTCGAGTAAACAAATTTTCCTAATCTTTCTGTTCAAGCGCCATCTAC”, the binding signal (RPM ratio (pull-down/input)) amounted to 0.323.

As for “GATGATTGTTCTCCCAGCTGATGAATTCAGGCTATCGAGTAAACAAATTTTCCTAATCTTTCTGTTCAAGCGCCATCTAC”, the binding signal (RPM ratio (pull-down/input)) came out at 0.527.

With “GATGATTGTTCTCCCAGCTGATGAATTTGTCATCTCGAGTAAACAAATTTTCCTAATCTTTCTGTTCAAGCGCCATCTAC”, the binding signal (RPM ratio (pull-down/input)) was 6.03.

Turning to “GATGATTGTTCTCCCAGCTGATGAATTCAGCGGTTCGAGTAAACAAATTTTCCTAATCTTTCTGTTCAAGCGCCATCTAC”, the binding signal (RPM ratio (pull-down/input)) was 0.48.

Turning to “GATGATTGTTCTCCCAGCTGATGAATTTCACTGGTCGAGTAAACAAATTTTCCTAATCTTTCTGTTCAAGCGCCATCTAC”, the binding signal (RPM ratio (pull-down/input)) was 0.282.

On to “GATGATTGTTCTCCCAGCTGATGAATTCAATCAGTCGAGTAAACAAATTTTCCTAATCTTTCTGTTCAAGCGCCATCTAC”, for which the binding signal (RPM ratio (pull-down/input)) stood at 0.321.

For “GATGATTGTTCTCCCAGCTGATGAATTTAAACGCTCGAGTAAACAAATTTTCCTAATCTTTCTGTTCAAGCGCCATCTAC”, the binding signal (RPM ratio (pull-down/input)) was found to be 0.381.

As to “GATGATTGTTCTCCCAGCTGATGAATTGGATGTGTCGAGTAAACAAATTTTCCTAATCTTTCTGTTCAAGCGCCATCTAC”, the binding signal (RPM ratio (pull-down/input)) amounted to 1.83.

Consider “GATGATTGTTCTCCCAGCTGATGAATTATGCGGCTCGAGTAAACAAATTTTCCTAATCTTTCTGTTCAAGCGCCATCTAC”, for which the binding signal (RPM ratio (pull-down/input)) stood at 1.5.

On to “GATGATTGTTCTCCCAGCTGATGAATTTTGCGTGTCGAGTAAACAAATTTTCCTAATCTTTCTGTTCAAGCGCCATCTAC”, for which the binding signal (RPM ratio (pull-down/input)) turned out to be 5.56.

As to “GATGATTGTTCTCCCAGCTGATGAATTACGATTTTCGAGTAAACAAATTTTCCTAATCTTTCTGTTCAAGCGCCATCTAC”, the binding signal (RPM ratio (pull-down/input)) came to 0.842.

Take “GATGATTGTTCTCCCAGCTGATGAATTGTGACCGTCGAGTAAACAAATTTTCCTAATCTTTCTGTTCAAGCGCCATCTAC”: the binding signal (RPM ratio (pull-down/input)) stood at 0.687.

Consider “GATGATTGTTCTCCCAGCTGATGAATTGTGGTAATCGAGTAAACAAATTTTCCTAATCTTTCTGTTCAAGCGCCATCTAC”, for which the binding signal (RPM ratio (pull-down/input)) came out at 1.1.

With “GATGATTGTTCTCCCAGCTGATGAATTTGTAACTTCGAGTAAACAAATTTTCCTAATCTTTCTGTTCAAGCGCCATCTAC”, the binding signal (RPM ratio (pull-down/input)) was 1.47.

“GATGATTGTTCTCCCAGCTGATGAATTCACACAATCGAGTAAACAAATTTTCCTAATCTTTCTGTTCAAGCGCCATCTAC”: the binding signal (RPM ratio (pull-down/input)) is 0.448.

As to “GATGATTGTTCTCCCAGCTGATGAATTCTAAGATTCGAGTAAACAAATTTTCCTAATCTTTCTGTTCAAGCGCCATCTAC”, the binding signal (RPM ratio (pull-down/input)) is 0.232.

“GATGATTGTTCTCCCAGCTGATGAATTTAGAGGATCGAGTAAACAAATTTTCCTAATCTTTCTGTTCAAGCGCCATCTAC”: the binding signal (RPM ratio (pull-down/input)) was determined as 0.299.

Consider “GATGATTGTTCTCCCAGCTGATGAATTTCCCACTTCGAGTAAACAAATTTTCCTAATCTTTCTGTTCAAGCGCCATCTAC”, for which the binding signal (RPM ratio (pull-down/input)) stood at 0.261.

Turning to “GATGATTGTTCTCCCAGCTGATGAATTCTCCCATTCGAGTAAACAAATTTTCCTAATCTTTCTGTTCAAGCGCCATCTAC”, the binding signal (RPM ratio (pull-down/input)) is 0.243.

“GATGATTGTTCTCCCAGCTGATGAATTATCCGATTCGAGTAAACAAATTTTCCTAATCTTTCTGTTCAAGCGCCATCTAC”: the binding signal (RPM ratio (pull-down/input)) came to 0.279.

With “GATGATTGTTCTCCCAGCTGATGAATTTTACAGCTCGAGTAAACAAATTTTCCTAATCTTTCTGTTCAAGCGCCATCTAC”, the binding signal (RPM ratio (pull-down/input)) was determined as 0.304.

For “GATGATTGTTCTCCCAGCTGATGAATTTGAAATCTCGAGTAAACAAATTTTCCTAATCTTTCTGTTCAAGCGCCATCTAC”, the binding signal (RPM ratio (pull-down/input)) is 0.298.

Take “GATGATTGTTCTCCCAGCTGATGAATTCGGCCGATCGAGTAAACAAATTTTCCTAATCTTTCTGTTCAAGCGCCATCTAC”: the binding signal (RPM ratio (pull-down/input)) was 0.438.

In the case of “GATGATTGTTCTCCCAGCTGATGAATTTATCTGTTCGAGTAAACAAATTTTCCTAATCTTTCTGTTCAAGCGCCATCTAC”, the binding signal (RPM ratio (pull-down/input)) stood at 0.835.

“GATGATTGTTCTCCCAGCTGATGAATTGGTGGACTCGAGTAAACAAATTTTCCTAATCTTTCTGTTCAAGCGCCATCTAC”: the binding signal (RPM ratio (pull-down/input)) is 0.694.

In the case of “GATGATTGTTCTCCCAGCTGATGAATTCGACAGGTCGAGTAAACAAATTTTCCTAATCTTTCTGTTCAAGCGCCATCTAC”, the binding signal (RPM ratio (pull-down/input)) was 0.284.

Turning to “GATGATTGTTCTCCCAGCTGATGAATTGTCCACGTCGAGTAAACAAATTTTCCTAATCTTTCTGTTCAAGCGCCATCTAC”, the binding signal (RPM ratio (pull-down/input)) amounted to 0.337.

“GATGATTGTTCTCCCAGCTGATGAATTTATCCTCTCGAGTAAACAAATTTTCCTAATCTTTCTGTTCAAGCGCCATCTAC”: the binding signal (RPM ratio (pull-down/input)) is 0.839.
